This is one part of the list. At the low end of the ranking, values are background and their order means little.

For this experiment, the target named is GST-SBP-SLBP (stem-loop binding protein) (UniProt Q14493). The experiment is described as follows: targeted RNA Bind-n-Seq.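 Further: DESeq read counts versus GST-SBP nonspecific binding control pulldown.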 The settings on record: RBNS binding buffer: 25 mM Tris pH 7.5, 150 mM KCl, 3 mM MgCl2, 0.1% Tween, 0.5 mg/mL BSA, 1 mM DTT; 27 nM protein, 750 pM RNA pool; temperature not stated; high values mean tight binding.
On to “GGUCACGUCUCAAUCAACUCUACUUCAGGAGUUUCCUCCUGUAAUCUCAACAGCUCGCAGUCAAG”, for which the binding signal (log2 fold change) was -0.021. “GGUCACGUCUCAAUCAACUCUAUCCCAGGAGUUUCCUCCUGCUAUUUCAACAGCUCGCAGUCAAG”: the binding signal (log2 fold change) is 0.0632. The figure for “GGUCACGUCUCAAUCAACUCAACUUCCAGGGAAACCCCUGGUUUUCUCAACAGCUCGCAGUCAAG” is -0.572; for “GGUCACGUCUCAAUCAACUCUUCGUCCAGGGAAACCCCUGGUUAAUUCAACAGCUCGCAGUCAAG” it is -0.0876; for “GGUCACGUCUCAAUCAACUCUUUUCCAGGAGUUUUCUCCUGUUUAUUCAACAGCUCGCAGUCAAG” it is -0.197. The figure for “GGUCACGUCUCAAUCAACUCCCUAGAGGGGGGGAAAACCCCUUUGCCCUCAAUUUCAACAGCUCGCAGUCAAG” is 0.164; for “GGUCACGUCUCAAUCAACUCAUCCCCCAGGGAAAGCCCUGGUUAACUCAACAGCUCGCAGUCAAG” it is -0.165; for “GGUCACGUCUCAAUCAACUCUUUCUCCAGGGAAAACCCUGGUUUUUUCAACAGCUCGCAGUCAAG” it is -0.186. Take “GGUCACGUCUCAAUCAACUCAUCGUCAGGAGUUUGCUCCUGUAUUCUCAACAGCUCGCAGUCAAG”: the binding signal (log2 fold change) was -0.12. The figure for “GGUCACGUCUCAAUCAACUCAUCUUCAGGAGUUUCCUCCUGCAAUCUCAACAGCUCGCAGUCAAG” is 0.0719; for “GGUCACGUCUCAAUCAACUCUUCCUCAGGAGUUUACUCCUGCAAUCUCAACAGCUCGCAGUCAAG” it is -0.0411. Under “GGUCACGUCUCAAUCAACUCAAUCUCAGGAGUUUCCUCCUGCUAUUUCAACAGCUCGCAGUCAAG” stands -0.0837; under “GGUCACGUCUCAAUCAACUCACUAGAGGGGGGGAAAACCCCUUUGCCCUCAUCAUCAACAGCUCGCAGUCAAG”, 0.283. The figure for “GGUCACGUCUCAAUCAACUCAAAAGAGGGGGGGAAAACCCCUUUACCCUCCACCUCAACAGCUCGCAGUCAAG” is 0.0649; for “GGUCACGUCUCAAUCAACUCAACUUCAGGAGUUUGCUCCUGUUAAUUCAACAGCUCGCAGUCAAG” it is 0.0511; for “GGUCACGUCUCAAUCAACUCAAUCCCCAGGGAAACCCCUGGUUAUCUCAACAGCUCGCAGUCAAG” it is -0.17. Turning to “GGUCACGUCUCAAUCAACUCUAAAGAGGGGGGGAAAACCCCUUUGCCCUCACAAUCAACAGCUCGCAGUCAAG”, the binding signal (log2 fold change) was found to be 0.134. Regarding “GGUCACGUCUCAAUCAACUCUAUCCCAGGAGUUUACUCCUGUUAACUCAACAGCUCGCAGUCAAG”, the binding signal (log2 fold change) came to 0.16. For the sequence “GGUCACGUCUCAAUCAACUCUUUAGAGGGGGGGAAAACCCCUUUGCCCUCAUUUUCAACAGCUCGCAGUCAAG”, the binding signal (log2 fold change) was -0.0931. The figure for “GGUCACGUCUCAAUCAACUCCCAAGAGGGGGGGAAAACCCCUUUACCCUCCGUUUCAACAGCUCGCAGUCAAG” is -0.286; for “GGUCACGUCUCAAUCAACUCUUACGAGGGGGGGAAAACCCCUUUGCCCUCAAAAUCAACAGCUCGCAGUCAAG” it is -0.694. Under “GGUCACGUCUCAAUCAACUCUAUGUCAGGAGUUUCCUCCUGUAAAUUCAACAGCUCGCAGUCAAG” stands -0.0191; under “GGUCACGUCUCAAUCAACUCACUAGAGGGGGGGAAAACCCCUUUACCCUCCAAAUCAACAGCUCGCAGUCAAG”, -0.223; under “GGUCACGUCUCAAUCAACUCUACUCCAGGAGUUUGCUCCUGCAUAUUCAACAGCUCGCAGUCAAG”, 0.137. Under “GGUCACGUCUCAAUCAACUCUUUCCCAGGAGUUUACUCCUGUAUAUUCAACAGCUCGCAGUCAAG” stands 0.0568; under “GGUCACGUCUCAAUCAACUCAUGUCCAGGAGUUUUCUCCUGCAAAUUCAACAGCUCGCAGUCAAG”, -0.136.

With “GGUCACGUCUCAAUCAACUCAAUCGAGGGGGGGAAAACCCCUUUACCCUCAUUAUCAACAGCUCGCAGUCAAG”, the binding signal (log2 fold change) was -0.0662. The figure for “GGUCACGUCUCAAUCAACUCUUCCCCCAGGGAAACCCCUGGCAUUUUCAACAGCUCGCAGUCAAG” is -0.0277. The figure for “GGUCACGUCUCAAUCAACUCUUUCUCCAGGGAAAACCCUGGCAUACUCAACAGCUCGCAGUCAAG” is 0.246; for “GGUCACGUCUCAAUCAACUCAUCCCCCAGGGAAACCCCUGGCUUUCUCAACAGCUCGCAGUCAAG” it is -0.17; for “GGUCACGUCUCAAUCAACUCAGUUCCAGGAGUUUUCUCCUGUUUUUUCAACAGCUCGCAGUCAAG” it is -0.224.

As to “GGUCACGUCUCAAUCAACUCAUUCUCAGGAGUUUACUCCUGCUAAUUCAACAGCUCGCAGUCAAG”, the binding signal (log2 fold change) came out at 0.0465. Turning to “GGUCACGUCUCAAUCAACUCAAUUCCAGGAGUUUUCUCCUGUAUUUUCAACAGCUCGCAGUCAAG”, the binding signal (log2 fold change) was -0.0528.

For the sequence “GGUCACGUCUCAAUCAACUCAUGUCCCAGGGAAAUCCCUGGUUUUUUCAACAGCUCGCAGUCAAG”, the binding signal (log2 fold change) was -0.427.

For the sequence “GGUCACGUCUCAAUCAACUCAUUUUCAGGAGUUUGCUCCUGUUUUCUCAACAGCUCGCAGUCAAG”, the binding signal (log2 fold change) was found to be 0.115. The figure for “GGUCACGUCUCAAUCAACUCUAUAGAGGGGGGGAAAACCCCUUUGCCCUCAUCUUCAACAGCUCGCAGUCAAG” is 0.0424; for “GGUCACGUCUCAAUCAACUCUCUAGAGGGGGGGAAAACCCCUUUACCCUCGUCAUCAACAGCUCGCAGUCAAG” it is -0.0542.

Source of the values: paper PMC5892938.
